Experimental data taken from the supplement of paper PMC3334620.
In all, about 33,000 sequences were measured (“E-score (-0.5 to 0.5)”: median about -0.011, highest 2% from about 0.28 on). This is one part of the list.

The sequences below were run against T1, Gcr1 (UniProt P07261) (assay: PBM E-score (8-mer binding enrichment) (E-score (-0.5 to 0.5)); higher = stronger / more preferred TF binding; most listed sequences are background and not binding sites). Details: protein concentration: 100 nM; construct: GST-full length.
T1 sequence: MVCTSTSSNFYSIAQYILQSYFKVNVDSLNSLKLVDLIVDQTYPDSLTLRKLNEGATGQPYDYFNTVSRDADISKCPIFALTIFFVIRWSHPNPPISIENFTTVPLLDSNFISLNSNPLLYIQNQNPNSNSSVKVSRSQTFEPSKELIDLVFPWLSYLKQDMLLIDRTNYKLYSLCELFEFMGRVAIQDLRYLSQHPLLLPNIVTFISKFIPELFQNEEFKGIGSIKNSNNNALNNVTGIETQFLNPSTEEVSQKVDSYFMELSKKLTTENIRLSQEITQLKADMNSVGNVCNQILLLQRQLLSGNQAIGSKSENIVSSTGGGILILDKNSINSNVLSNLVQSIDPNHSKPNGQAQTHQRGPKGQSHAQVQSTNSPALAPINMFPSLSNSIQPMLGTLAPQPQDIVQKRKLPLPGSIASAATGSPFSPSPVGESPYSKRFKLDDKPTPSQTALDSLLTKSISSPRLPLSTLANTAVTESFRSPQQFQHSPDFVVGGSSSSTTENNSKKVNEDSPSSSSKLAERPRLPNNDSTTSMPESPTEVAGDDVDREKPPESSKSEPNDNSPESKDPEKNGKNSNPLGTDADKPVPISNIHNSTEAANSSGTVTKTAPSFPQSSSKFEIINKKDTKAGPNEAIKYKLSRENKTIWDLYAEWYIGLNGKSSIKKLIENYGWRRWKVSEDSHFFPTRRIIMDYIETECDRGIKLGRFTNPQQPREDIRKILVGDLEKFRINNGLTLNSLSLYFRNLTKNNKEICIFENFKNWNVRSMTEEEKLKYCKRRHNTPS
Method: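 Universal 'all 10-mer' protein binding microarrays (Agilent AMADID 015681) probed with GST-tagged S. cerevisiae TFs (full-length or DBD) made by in vitro transcription/translation (PURExpress), about 100-200 nM. Bound TF was detected with fluorescent anti-GST. Each ungapped 8-mer (which stands for itself and its reverse complement) is scored by the PBM enrichment score (E-score), a modified Wilcoxon-Mann-Whitney statistic from -0.5 to +0.5, computed with the Universal PBM Analysis Suite. Scale: above 0.35 generally sequence-specific binding.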

Sequence	PBM E-score
AGCCCAGA	0.0713
CTAAAAAC	-0.0549
CCTAGCCG	-0.0179
GCGCGTCC	0.157
AACTTATC	0.166
ATCACCCC	0.108
GAGACTGC	-0.187
GCGCTTCA	-0.0425
AAGACCAA	-0.003
AAGGGGCG	-0.119
CCACGTAG	0.0903
CGTTAAAG	-0.00879
CGTGCTTC	0.0359
TCGTGTCA	-0.056
ACTGATTA	0.078
CCCTGCGC	-0.105
AAACTATG	0.0028
ACGTTAAA	-0.0417
AAGTGTCC	-0.173
AACTAGTA	0.176
AGAATACT	0.0845
CCCAGAAG	0.233
CAACCAGA	0.182
AGCCTTGG	-0.156
CAAGTAAC	-0.0163

Sequence	PBM E-score
CGAGGCTA	-0.0217
ATGTATGA	0.0274
GCACTCTA	0.0088
CCCATTGA	0.0816
GCCATCAC	-0.195
AACGAGTT	-0.00987
CAACTAAA	0.11
ACGTTTAA	0.0916
ATCTTTGC	0.0825
GGCGTCCA	0.436
CAACGTTG	0.0373
AATTCGGA	0.16
CTCGTTAA	0.00746
GCAAACAA	0.0185
AGTCAAAC	-0.0456
GGCAACTA	0.143
CAACATCG	-0.119
ACGGGTAT	0.0426
GATAAACA	0.0306
CGGATCAG	0.11
ACATAGGG	0.0186
GCTTTACA	-0.0635
GGACACCA	0.24
GAGCACTC	-0.109
CTTGATAC	0.0039

Sequence	PBM E-score
GCCATAAC	-0.048
AAGCGCAC	-0.31
CAGGCGCC	0.361
TACTCATA	-0.0456
CCTAAAAC	0.2
CTTCCACA	0.349
AGGATTAC	0.0473
ATCGCCAC	-0.115
GGTCTGGA	0.0233
ACGAGCTA	0.029
GAAATCCC	0.143
ATGTTAAG	0.0601
AAACTTTG	0.124
GGGCCCTA	0.0423
GGCGTCAC	-0.128
AACGAAAC	-0.0313
TGAAAGCA	0.00794
CTGAGCCA	-0.125
ACGATCAG	-0.0734
GTAACCTA	0.116
GCTCCAAC	0.0619
AACATCTC	-0.136
AAGGCCAC	-0.0718
AGGAGCGG	0.112
GACGCCGA	0.211

Sequence	PBM E-score
GCCGGGAC	-0.196
CCACCAGC	0.145
CGAGTTCC	0.117
TAATCATA	-0.0415
GAAACTGC	-0.205
CCCCATTC	0.157
GGAGGTAC	-0.246
ATGCCACA	0.251
CGCCGTAG	0.242
CAAAACTC	0.06
GGCGAACC	-0.129
ACTTATGC	0.0516
GAGATATC	-0.163
TCCCGCGA	-0.114
TGATGACA	-0.0722
CGAATTAC	0.0492
GCCCGCTA	-0.125
ACAATACA	-0.0375
CCGCGCGG	0.0164
CGGGTCCA	-0.146
AGGGTGCG	0.0402
GCGTCGCA	0.0686
CACAAATA	0.186
CGATACAA	0.0197
AGAGAGCA	-0.227

Sequence	PBM E-score
ACCAATAC	0.189
TTAACAAA	0.227
ATAAGGTC	-0.0111
AGTACTTA	0.0681
ACGGGATA	0.0896
CCAGGGCA	-0.14
CCCAGGAG	-0.0352
CAGAACAA	0.0719
CCTCGAGC	-0.102
AGCGAACT	-0.126
GACATATC	-0.0369
AGCCAACG	-0.00833
ATGCATTC	-0.0429
GCTCCGCA	0.0293
TCGGAAAA	0.00753
AATGACCA	-0.0269
CGTGCACA	-0.209
AGTTCGAC	0.0317
CATAGCCG	-0.21
ACCACTAC	0.129
GTGCTAAA	0.0224
GCAACTTA	0.223
CCCTCGAA	-0.157
AACAGCAT	0.0511
ATAGGGCA	0.0841

Sequence	PBM E-score
CCATACCG	0.164
GTAAACAC	-0.0659
AGTTAACA	0.157
CACTTTCA	0.169
AGTACCTA	-0.00963
TATGAATA	0.176
GACCGTCA	-0.272
GCATGACC	-0.239
AAGTCGAA	0.0262
CGCTGCGC	0.0562
ATCAATAA	0.0198
AACCGCTA	0.0976
CGTCAAAC	0.0735
AAGCTAGT	-0.01
AACCAATT	0.0895
GCTGTCCA	-0.0454
CTTTGAAA	0.112
TCAGTCCA	-0.276
CGGCGGCA	-0.168
CGGCAGTC	0.00341
TATAGCCA	0.0685
CCAGTTCC	0.145
AAACCTTT	-0.111
CATGTCGA	-0.0877
TAATTTGA	0.0557

Sequence	PBM E-score
TACTTATA	0.118
AAAGATCT	-0.299
ATCTCGCC	-0.116
TCCGGCCA	-0.232
ATACGTTG	0.109
CGCATCAC	0.179
AGTCTGTC	-0.152
ACTAGTGG	0.219
CGACGCAA	-0.234
TCGCCGCA	0.0198
ATAGCAAC	0.0791
AAGAGGGA	-0.189
AGAGACGG	-0.0393
AGGTGTGA	-0.0738
AGCGATAG	-0.122
CCATGTTA	-0.0553
CCTCGTAA	0.0163
ACGAGACC	-0.0249
CGCAGGCG	0.00025
CCAGTTTA	0.069
AGCGTCGG	-0.0683
TAATACCA	0.0622
ACAGAGAG	-0.245
AACTTCTA	0.178
AATGACAA	-0.0872

Sequence	PBM E-score
AGGTCACA	-0.15
GCGGTCAC	-0.0316
AACAACGA	-0.0377
CAGGGCGG	-0.27
AGGACCTA	-0.0741
TAGGCGAA	0.183
ATGCCATG	-0.125
CATCGCGG	-0.132
AGCGCATC	0.127
TGCTGAAA	0.0615
AAATCACT	-0.0987
CTGTCTCC	-0.0163
ACGCTCCT	-0.0698
TACAGGTA	0.0633
AAACCGGC	0.109
GCTTGCAC	-0.1
CCTATCAC	-0.078
AGGAATAT	-0.168
ATTAGGCA	0.00576
CGAGACGA	-0.0255
GGCGCCCC	0.308
GACCTATA	0.0846
AGGCTGCA	-0.0233
ACTGAACT	-0.0849
AGTGCACT	-0.297

Sequence	PBM E-score
GGGAGAAA	-0.0481
GTGTATTA	0.187
CAGGTTGC	0.135
CCGGCTAG	-0.189
GGCCACCC	-0.142
GCAAGACC	-0.0175
CCTTCGGC	-0.142
TAGGTTGA	0.0479
ATCTGGAG	0.0569
CCGTGTGC	-0.0119
ATCAATCA	-0.0168
CGGCTGAA	-0.112
CACATTGG	-0.00213
GCGCTAGC	-0.0426
AACCCTCA	-0.104
AGCGGCCG	0.232
GGACAGCC	-0.0497
GGCCGACA	0.0543
CGCAGCCC	0.324
